Assay results reported in the supplement of paper PMC3656093.
± gives the standard deviation of the averaged measurements. The full ranking holds about 1,900 compounds; the median of “CD40L-induced NF-kB luciferase activity, plate-corrected, relative to DMSO (0) and IKK inhibitor VII (-100) controls” is about 0.032, and the lowest 2% start at about -26. This is one part of the list.

Test system: BL2-NFkB-Luc
Test: CD40L-induced NF-kB luciferase activity, plate-corrected, relative to DMSO (0) and IKK inhibitor VII (-100) controls (% normalized activity); higher = more NF-kB reporter activity (less inhibition)
Settings: 9.4 µM; stimulus: tCD40L 64 ng/ml; 4.5 h
Experimental: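 BL2 B cells with a stable NF-kB response-element luciferase reporter (BL2-NFkB-Luc), 384-well. Cells were pre-incubated with compound at 9.4 uM for 1 h at 37 C, then stimulated with 64 ng/ml trimerized CD40L for 4.5 h; luciferase was read with Steady-Glo. Signal was normalised per plate in Genedata (median DMSO neutral control = 0, median IKK inhibitor VII at 50 uM = -100) with Assay Median plate-pattern correction; duplicate plates.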

SMILES | CD40L-induced NF-kB luciferase activity
COc1ccccc1NC(=O)N1CCc2[nH]c3ccc(Cl)cc3c2C1 | -0.849 ± 1.2
O=C1Nc2ccc3sc4ccccc4c3c2C1=O | 61.6 ± 3.2
COc1ccc([C@H]2[C@H](C(=O)OC(C)(C)C)N3N=Cc4ccccc4C3C23C(=O)c2ccccc2C3=O)cc1OC (some centres not stated) | -0.633 ± 2.7
NS(=O)(=O)c1cc2c(cc1C(F)(F)F)NC(Cc1ccccc1)NS2(=O)=O (configuration not stated) | -0.0595 ± 0.71
COc1ccc(NC(=O)N2CCCCC2c2cccnc2)cc1 (configuration not stated) | 2.11 ± 0.12
CC(CN1c2ccccc2Sc2ccccc21)N(C)C (configuration not stated) | -0.524 ± 6.9
O=C(N/C(=C/C=C\c1ccccc1)C(=O)N1CCOCC1)c1ccc(Br)cc1 | 1.56 ± 5.1
Cc1cc(OCC(=O)C(C)(C)C)c2c(C)c(C)c(=O)oc2c1 | 2.09 ± 6.8
O=C(Cc1ccccc1[N+](=O)[O-])NCc1ccncc1 | -1.22 ± 0.94
Cc1ccc(OCCSc2ncccn2)c(C)c1 | 63.4 ± 3.3
Cc1ccc(C(=O)O)cc1NC(=O)c1cccs1 | -2.76 ± 1.8
CC1(C)CC(=O)c2cn3c(nc2C1)nc1ccccc13 | 2.43 ± 0.29
CCn1cc(C(=O)O)c(=O)c2cc(F)c(N3CCNCC3)cc21 | -0.57 ± 0.86
O=C(NCCc1c[nH]c2ccccc12)OCCSS(=O)(=O)O | 0.55 ± 1.4
CCOC(=O)c1ccc2[nH]c(C)c(CCC(C)=O)c(=O)c2c1 | -1.2 ± 1.3
CN(CCc1cnn(C)c1)Cc1nc(CC2CC2)no1 | -0.906 ± 0.31
Cc1ccc(N2C(=O)c3ccccc3C2=O)cc1C | 8.27 ± 0.4
O=c1c(C(c2ccccc2)c2c(O)sc3ccccc3c2=O)c(O)sc2ccccc12 | -1.14 ± 6.7
CCOC(=O)C1=C(C)NC(C)=C(C(=O)OC)C1c1cccc([N+](=O)[O-])c1 (configuration not stated) | -1.34 ± 4
COc1cc2ccc(=O)oc2c(O)c1OCC=C(C)C | 17.9 ± 4.9
CCCCOc1ccc(OCCCN2CCOCC2)cc1 | -4.49 ± 0.48
CC1CCc2cc(F)cc3c(=O)c(C(=O)O)cn1c23 (configuration not stated) | -0.144 ± 0.46
O=C(NCC1CCCCN1)c1cc(OCC(F)(F)F)ccc1OCC(F)(F)F (configuration not stated) | -3.67 ± 6
CC(=O)c1c[nH]c2ccc(C)cc2c1=O | 13.2 ± 2.8

SMILES | CD40L-induced NF-kB luciferase activity
CC1(C)CC(CC(=O)Nc2nccs2)(c2ccccc2)CCO1 (configuration not stated) | -2.7 ± 1.3
COc1ccc(CNC(=O)N[C@H](C(=O)O)C(C)C)cc1OC | 7.96 ± 1.4
COc1cccc(N2C(=O)[C@H]3C(C(=O)c4cnccn4)=NN[C@H]3C2=O)c1 | -0.748 ± 1.9
Cc1ccc2c(c1)C1CN(C)CCC1N2S(=O)(=O)c1ccc(Oc2ccc([N+](=O)[O-])cc2)cc1 (configuration not stated) | 2.33 ± 1.6
Cc1cccc(Nc2ncccc2C(=O)O)c1C | -3.873 ± 0.016
CS(=O)(=O)NCc1ccc(C(=O)NCc2ccccc2)cc1 | 7.75 ± 3.4
Cc1ccc2c(c1)OC(=O)CC2c1ccccc1 (configuration not stated) | -1.28 ± 5
C#CCOc1ccc2c(C)cc(=O)oc2c1 | 6.2 ± 3.8
O=C1CCCCCN1Cc1ccccc1 | 3.92 ± 5.3
Cc1ccsc1C=NNC(=O)c1ccc2c(c1)OCO2 | 50.38 ± 0.13
CCOc1cc2c3c(c1)C(C)=CC(C)(C)N3C(=O)C2=O | 1.89 ± 0.12
N/C(=N\OC(=O)CCCOc1ccc(Cl)cc1Cl)c1ccncc1 | 66.8 ± 5.8
COc1ccc(C(=O)OCc2cc3cccc(C)c3[nH]c2=O)cc1 | 3.33 ± 4.1
CCn1c(N2CCN(CC(=O)c3c(C)n(C)c4ccc(OC)cc34)CC2)nc2c1c(=O)[nH]c(=O)n2C | 2.93 ± 5.2
COc1ccc(CCN(C)Cc2nc(Cc3ccc(OC)c(OC)c3)no2)cc1OC | -7.97 ± 12
Cc1c(OCC(F)(F)F)ccnc1C[S+]([O-])c1nc2ccccc2[nH]1 (configuration not stated) | 21 ± 2.6
Cc1ccc(SCC(=O)Nc2nccs2)cc1 | 48.8 ± 7.2
CCc1cc(=O)oc2cc3occ(-c4ccc(OC)c(F)c4)c3cc12 | -4.14 ± 0.45
CC[n+]1c(C)sc2cc(C)ccc21 | -3.64 ± 1.8
Cc1nc(N)nc2c1CCCC2 | -1.37 ± 0.89
CSc1ccc(CN2CCN(CCC(C)C)C(CCO)C2)cc1 (configuration not stated) | -4.01 ± 5.8
COc1ccc2cc(C(=O)Nc3ccc(S(N)(=O)=O)cc3)sc(=O)c2c1OC | 8.87 ± 1.6
COCCCN1C(=O)C(=O)/C(=C(/O)c2ccc3c(c2)CC(C)O3)C1c1cccnc1 (configuration not stated) | -5.92 ± 4.3
COc1ccccc1C1C(C#N)=C(N)Oc2c1oc(CO)cc2=O (configuration not stated) | -1.31 ± 0.27

SMILES | CD40L-induced NF-kB luciferase activity
COc1ccc(-c2coc3cc(O)cc(O)c3c2=O)cc1 | 65.8 ± 2.2
COc1ccc(C(=O)c2oc3ccc(Br)cc3c2NC(C)=O)cc1 | -1.12 ± 1.1
O=C(CC1(O)C(=O)Nc2ccccc21)c1ccccc1O (configuration not stated) | 1.73 ± 4.3
CN(C)CCC(c1ccc(Cl)cc1)c1ccccn1 (configuration not stated) | -1.1 ± 12
CC(C)C[C@H](NC(=O)NC(C)C)C(=O)O | 4.06 ± 5.6
OCC(O)CN1CCN(c2ccccc2)CC1 (configuration not stated) | -0.715 ± 3.9
CCOC(=O)c1ccccc1NC(=O)c1ccc(F)cc1 | 4.78 ± 9.1
O=C(Cc1cccc2ccccc12)N1CC[C@@]2(O)CCCC[C@H]2C1 | 0.397 ± 3.4
CCOC(=O)C1C(=O)OC(C)(C)C1C(C)C(=O)c1ccc(C)cc1 (configuration not stated) | -7.11 ± 5.9
CC1(C)CC(=O)C(C(=O)CCCCC(=O)C2C(=O)CC(C)(C)CC2=O)C(=O)C1 | -1.33 ± 2.3
S=C(NCCOCCOCCNC(=S)Nc1ccccc1)Nc1ccccc1 | -3.25 ± 0.7
CCOC(=O)c1oc2cc(OCC(N)=O)ccc2c(=O)c1-c1ccc(OC)c(OC)c1 | -1.7 ± 1.9
COc1ccc(/C=C\C(=O)c2c(O)ccc3c(C)cc(=O)oc23)cc1OC | -14 ± 3.3
CC(C)(C)OC(=O)N1CC(O)CC1C(=O)OCC(=O)c1ccc(Cl)cc1 (configuration not stated) | 0.466 ± 2.2
Nc1[nH]c(=O)ncc1F | 1.45 ± 4.4
C[C@]12CCC3C(CC=C4C[C@@H](O)CC[C@@]43C)C1CCC2[C@]1(C)CCC(=O)O1 (some centres not stated) | 0.402 ± 0.94
CN(C)CCOC(=O)C(c1ccccc1)C1(O)CCCC1 (configuration not stated) | -7.92 ± 3.4
CC(C)(C)NCC(O)COc1ccccc1C(=O)CCc1ccccc1 (configuration not stated) | 0.277 ± 3.4
Cc1ccc2c(c1)c(C)cc(=O)n2CCC(=O)O | 1.95 ± 3.4
O=C(NCCc1nc2ccccc2[nH]1)c1cccc(Br)c1 | -2.89 ± 7.2
O=C(O)c1ccccc1Nc1cccc(C(F)(F)F)c1 | -0.457 ± 2.1
CC(=O)Oc1ccc(C(c2ccc(OC(C)=O)cc2)c2ccccn2)cc1 | -2.11 ± 0.43
N=c1nc(N2CCCCC2)cc(N)n1O | 3.27 ± 5.3
COc1ccc(C2OC[C@H]3O[C@H](O)[C@H](NC(C)=O)[C@@H](O)[C@@H]3O2)cc1 (some centres not stated) | -1.67 ± 0.076

SMILES | CD40L-induced NF-kB luciferase activity
O=[N+]([O-])c1ccc(O)c2ncccc12 | -1.58 ± 2.2
COc1cccc(CC(=O)NCC2COc3ccccc3O2)c1OC (configuration not stated) | -4.07 ± 2
CC(=O)OCC1OC(n2ccc(=O)[nH]c2=O)C(O)C1O (configuration not stated) | 3.06 ± 0.22
CC(NCCc1ccc(O)cc1)C(O)c1ccc(O)cc1 (configuration not stated) | 0.0595 ± 4.6
COC(=O)C1=NN(C(=O)c2cccc(Br)c2)C(O)(c2ccc(Cl)cc2)C1 (configuration not stated) | -3.91 ± 2.9
CC12CCC(C(=O)Nc3ccccc3Br)(CC1=NO)C2(C)C (configuration not stated) | 2.02 ± 4
Cc1ccc2c(CN3CCN(Cc4ccc5c(c4)OCO5)CC3)cc(=O)oc2c1C | -2.17 ± 9.3
Cc1nc2ccccc2n1CC(O)Cn1c2ccccc2c2ccccc21 (configuration not stated) | -1.02 ± 0.85
CCC1(c2ccccc2)NC(=S)N(c2ccc(C)c(C)c2)N1 (configuration not stated) | -4.42 ± 11
CC1(C)CC(=O)C2=C(C1)c1c(ccc3ccccc13)NC2c1ccco1 (configuration not stated) | 45.7 ± 2.5
Cc1ccc2[nH]c3c(c2c1)CCNC3=O | -5.41 ± 0.7
CCOC(=O)C1=C(C)NC(C)=C(C(=O)OC)C1c1cccc(Cl)c1Cl (configuration not stated) | -0.0605 ± 7.1
Cc1nc2sccn2c(=O)c1CCN1CCC(=C(c2ccc(F)cc2)c2ccc(F)cc2)CC1 | -12.2 ± 1.6
CCOc1ccc(C(=O)NC(C)C2COc3ccccc3O2)cc1 (configuration not stated) | 18.5 ± 5.3
C[C@H](CCC(=O)O)[C@H]1CC[C@H]2[C@@H]3C(=O)C[C@@H]4CC(=O)CC[C@]4(C)[C@H]3CC(=O)[C@]12C | -0.821 ± 1.5
CCSC(=O)CCCCCCCCCCCO | 10.2 ± 2.4
Cc1ncoc1C(=O)N1CCCC(C(=O)c2ccc(-c3ccccc3)c(F)c2)C1 (configuration not stated) | -1.58 ± 0.54
COc1ccc(-c2[nH]ncc2CN(C)C(C)c2ccon2)c(OC)c1 (configuration not stated) | -5.7 ± 5.7
C=CCc1ccc(OCC(O)COc2ccc(CC=C)cc2OC)c(OC)c1 | 6.35 ± 7.1
O=C(O)c1cnccn1 | -0.082 ± 2.6
CN1CCN2c3ccccc3Cc3ccccc3C2C1 (configuration not stated) | 0.392 ± 0.068
COc1ccc(/C=C/C(=O)c2cc3cccc(OC)c3oc2=O)cc1 | 4.63 ± 2.5
CCN(CC)Cc1c[nH]c2c(C(=O)OC)cccc12 | 2.98 ± 0.3
O=C1c2cccc3cccc(c23)C(=O)N1c1ccccn1 | 3.96 ± 0.69

SMILES | CD40L-induced NF-kB luciferase activity
O=C(O)CCC(=O)c1ccc(-c2ccccc2)cc1 | 39.5 ± 4.7
Cc1cc(C)c(NC(=O)NC(=O)C(Cl)(Cl)Cl)c(C)c1 | -1.23 ± 3.9
CC(=O)N=c1sc(S(N)(=O)=O)nn1C | -0.0005 ± 4.8
CC(=O)N(CCC1(C(C)C)CCOC(C)(C)C1)Cc1ccco1 (configuration not stated) | -4.91 ± 6.3
CC(C)NNC(=O)c1ccncc1 | -8.05 ± 8.5
COc1ccc2[nH]cc(C3N4CC5(C)CN3CC(C)(C4)C5=O)c2c1 (configuration not stated) | 2.08 ± 1.7
Cc1ccccc1C(=O)NNc1ncnc2c1cnn2C | -2.14 ± 2.1
CCOc1ccc2[nH]c3c(=O)n(CCc4ccc(OC)cc4)cnc3c2c1 | -2.8 ± 3.9
COc1c2occc2c(OC)c2c(=O)cc(C(F)(F)C(F)(F)F)oc12 | 0.266 ± 3
COc1ccc(C(CC(=O)N2CCOCC2)C(C)C)cc1 (configuration not stated) | 4.41 ± 7.1
CC(=O)[C@H]1[C@H](C#N)C[C@H]2[C@@H]3CC=C4C[C@@H](O)CC[C@]4(C)[C@H]3CC[C@@]21C | -2.58 ± 4.3
OC(CCN1CCCCC1)(c1ccccc1)c1ccccc1 | 0.773 ± 2.9
N=c1ccn(CC(=O)NC(N)=O)c2ccccc12 | -1.5 ± 3.9
CCC(C)NCCOc1ccccc1C (configuration not stated) | -0.253 ± 4.2
COc1ccc(/C=C2\CC/C(=C\c3ccc(OC)c(OC)c3)C2=O)cc1OC | 24 ± 2.5
COc1cc2c(cc1O)CCN(C(=O)c1ccco1)C2C (configuration not stated) | 0.059 ± 5.1
CSCC[C@H](NC(=O)OC(C)(C)C)C(=O)N1CCC(C(=O)N[C@@H](C)C(=O)O)CC1 | -0.66 ± 0.41
CC(C)c1cc(=O)oc2c3c4c(cc12)CCCN4CCC3 | 2.28 ± 2
CN(C)c1cc(NC(=O)CN2CCOCC2)c2ccccc2n1 | 3.35 ± 23
Cc1nc2c(c3c1[nH]c1ccccc13)C(=O)CC(C)(C)C2 | -0.509 ± 4.8
CC(C)=CCCC1=CCC2C(=O)NNC(=O)C2C1 (configuration not stated) | -2.77 ± 2.9
